Measurements from PubChem BioAssay (Tox21).
Where “and” joins values, the source holds several entries; their conditions need not be identical. Equal entries are not always repeated. This list was built around the results that the source calls inconclusive (neither active nor inactive); the mix of calls is not that of the screen. For some assays here: A potency beside an inconclusive call is a rough fit, not a confirmed value. Calls of active or inactive are those of the source. Unless noted, calls come from the whole dose curve; as a rule, active = well fitted curve in the direction sought with a large enough effect in the repeat runs; inconclusive = weak or mixed curves; inactive = no such curve, though single readings can be large; an effect the other way counts as inactive or inconclusive.

Assays:
[1] = qHTS assay to identify small molecule agonists of the endoplasmic reticulum stress response signaling pathway - cell viability counter screen (AID 1159517; calls by dose curve; note: nearly all actives have a fitted effect of over 50% in size)
Procedure, shortened: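 ESRE-bla HeLa cells, 1,500 per well, seeded overnight then treated with compounds for 5 hr at 37 C. After the beta-lactamase read, viability in the same wells is measured by CellTiter-Glo luminescence after 30 min at room temperature.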

[2] = target: Nuclear receptor ROR-gamma (Homo sapiens) (UniProt P51449); experiment: qHTS assay to identify small molecule antagonists of the retinoid-related orphan receptor gamma (ROR-gamma) signaling pathway (AID 1159521; note: nearly all actives have a fitted effect of over 50% in size)
Procedure, shortened: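 Luminescence readout (ONE-Glo, 30 min RT) after 16 h doxycycline induction; loss of signal scored as antagonism. CHO cells with TET-inducible RORγ and RORE-LUC reporter; compounds added 2 h before 1 uM final doxycycline.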

[3] = target: Retinoic acid receptor RXR-alpha (Homo sapiens) (UniProt P19793); experiment: qHTS assay to identify small molecule agonists of the RXR signaling pathway (AID 1159527; calls by dose curve; note: nearly all actives have a fitted effect of over 35% in size); conditions: HEK293T RXRa-UAS-bla, beta-lactamase ratio, 16 h; activation: at 76.8 µM (top of the series) unless noted
UniProt P19793, sequence (P19793 whole entry, looked up): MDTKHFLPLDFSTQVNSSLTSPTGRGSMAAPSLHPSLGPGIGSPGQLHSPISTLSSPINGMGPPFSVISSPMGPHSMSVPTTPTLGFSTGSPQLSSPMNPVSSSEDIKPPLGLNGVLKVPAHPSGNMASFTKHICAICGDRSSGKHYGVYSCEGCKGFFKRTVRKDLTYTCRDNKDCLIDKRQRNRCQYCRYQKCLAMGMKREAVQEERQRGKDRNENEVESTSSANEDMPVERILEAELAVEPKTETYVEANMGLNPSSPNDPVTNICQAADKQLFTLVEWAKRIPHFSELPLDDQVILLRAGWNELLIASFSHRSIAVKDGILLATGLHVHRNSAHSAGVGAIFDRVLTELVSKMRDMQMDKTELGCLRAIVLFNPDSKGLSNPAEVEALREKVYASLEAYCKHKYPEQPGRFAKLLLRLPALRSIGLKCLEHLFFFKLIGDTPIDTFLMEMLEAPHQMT
Procedure, shortened: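 Agonist mode; 9-cis retinoic acid positive control. HEK 293T UAS-bla reporter cells, 2% charcoal-stripped FBS, 16 hr compound exposure at 37 C/5% CO2. LiveBLAzer B/G FRET substrate 2 hr RT; ex 405, em 460/530 nm.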

[4] = qHTS assay to identify small molecule agonists of the RXR signaling pathway - cell viability counter screen (AID 1159529); note: nearly all actives have a fitted effect of over 50% in size
Procedure, shortened: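 Luminescence from CellTiter-Glo (30 min, RT) measured viability in the same wells as the beta-lactamase reporter readout. Cells: GeneBLAzer RXR-alpha HEK 293T, 2% charcoal-stripped FBS. Compound exposure 16 hr, 37 C.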

[5] = target: Luciferin 4-monooxygenase (Photinus pyralis) (UniProt P08659); experiment: qHTS assay to identify small molecule inhibitors of firefly luciferase (AID 1224835); note: nearly all actives have a fitted effect of over 25% in size
UniProt P08659, sequence (P08659 whole entry, looked up): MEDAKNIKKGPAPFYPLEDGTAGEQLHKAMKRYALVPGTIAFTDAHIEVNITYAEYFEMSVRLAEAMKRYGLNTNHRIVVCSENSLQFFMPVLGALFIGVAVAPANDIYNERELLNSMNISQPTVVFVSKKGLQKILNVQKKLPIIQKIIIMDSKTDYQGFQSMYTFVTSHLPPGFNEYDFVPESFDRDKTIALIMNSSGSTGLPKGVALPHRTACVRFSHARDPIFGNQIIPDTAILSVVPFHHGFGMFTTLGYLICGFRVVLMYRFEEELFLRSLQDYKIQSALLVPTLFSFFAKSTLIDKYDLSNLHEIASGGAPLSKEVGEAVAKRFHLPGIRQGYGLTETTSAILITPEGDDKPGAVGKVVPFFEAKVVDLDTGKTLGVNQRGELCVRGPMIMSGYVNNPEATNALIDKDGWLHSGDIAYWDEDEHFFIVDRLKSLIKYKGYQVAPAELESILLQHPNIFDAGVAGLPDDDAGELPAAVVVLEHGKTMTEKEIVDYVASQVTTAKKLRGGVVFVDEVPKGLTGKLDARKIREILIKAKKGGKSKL
Procedure, shortened: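 Biochemical qHTS: compounds run as interplate titrations against purified firefly enzyme, with D-luciferin and ATP each at its KM concentration. Light output recorded by CCD imaging.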

[6] = qHTS assay to identify small molecule agonists of the AP-1 signaling pathway (AID 1159526; calls by dose curve; for activation: % is set by controls: 0 for no effect and ±100 for the full control effect); conditions: ME-180 (cervical carcinoma) AP-1-bla reporter, beta-lactamase FRET ratio, 5 h; activation: at 76.8 µM (top of the series) unless noted
[7] = qHTS assay to identify small molecule antagonists of the retinoid acid receptor (RAR) signaling pathway - cell viability counter screen (AID 1159551); note: nearly all actives have a fitted effect of over 35% in size
Procedure, shortened: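 Seed C3RL4 cells; next day add compound, then retinol to 1 uM final; incubate 6 h at 37 C; add CellTiter-Glo; read luminescence after 30 min at RT.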

[8] = qHTS assay to identify small molecule agonists of the AP-1 signaling pathway - cell viability counter screen (AID 1159525; calls by dose curve; note: nearly all actives have a fitted effect of over 55% in size)
Procedure, shortened: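 AP-1-bla ME-180 cells in Opti-MEM with 0.5% dialyzed FBS, compound exposure 5 h at 37 C in 15-point titration. Viability read in the same wells as ATP content by CellTiter-Glo luminescence, normalised to tetra-n-octylammonium bromide and DMSO controls.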

[9] = qHTS assay to identify small molecule antagonists of the estrogen related receptor (ERR) signaling pathway (AID 1224819; note: nearly all actives have a fitted effect of over 50% in size)
Procedure, shortened: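 qHTS in ERR cells, 2,000/well, 1536 format. Cpd (DMSO) added after 6 h settle, 18 h 37 C. One-Glo luminescence, 30 min RT.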

[10] = system: estrogen-related receptor alpha (ERRalpha) with PGC-1alpha coactivator, human; experiment: qHTS assay to identify small molecule antagonists of the estrogen related receptor signaling pathway with the pleiotropic PPARgamma coactivator (PGC) (AID 1224821; calls by dose curve; note: nearly all actives have a fitted effect of over 50% in size)
Procedure, shortened: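 Luminescent read-out (One-Glo, 30 min at room temperature) following 18 h treatment of PGC/ERR cells at 37 C with compounds delivered in DMSO. Cells had settled 6 h at 37 C/5% CO2 before dosing.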

[11] = qHTS assay to identify small molecule antagonists of the estrogen related receptor signaling pathway with the pleiotropic PPARgamma coactivator (PGC) cell viability counter screen (AID 1224822)
Procedure, shortened: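 Compounds in DMSO, with positive and negative controls, were applied to PGC/ERR cells (2,000/well) and left 17.5 h at 37 C before CellTiter-Fluor detection.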

[12] = qHTS assay to identify small molecule antagonists of the estrogen related receptor (ERR) signaling pathway from Tox21 library - cell viability counter screen (AID 1224834); note: nearly all actives have a fitted effect of over 30% in size
Procedure, shortened: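 CellTiter-Fluor fluorescence measured; ERR cells; 17.5 h compound incubation at 37 C; 30 min reagent step.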

[13] = qHTS assay to identify small molecule agonists of the constitutive androstane receptor (CAR) signaling pathway - cell viability counter screen (AID 1224836); note: nearly all actives have a fitted effect of over 45% in size
Procedure, shortened: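 Viability read-out: CellTiter-Fluor fluorescence after 23 h compound exposure at 37 C/5% CO2 in double-stable HepG2-CYP2B6-hCAR cells, with PK11195 present at 0.75 uM final; compounds tested in 15-point titration.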

[14] = qHTS assay to identify small molecule agonists of the retinoic acid receptor (RAR) signaling pathway (AID 1159553); conditions: C3RL4 RARE luciferase reporter, agonist, 6 h; activation: at 73.3 µM (top of the series) unless noted; for activation: % is set by controls: 0 for no effect and ±100 for the full control effect
Procedure, shortened: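 Activation of retinol signaling was monitored via a RARE luciferase reporter in C3RL4 cells. After 6 hr compound treatment at 37 C, detection reagent was added for 30 min at room temperature before luminescence reading.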

[15] = qHTS assay to identify small molecule antagonists of the estrogen related receptor (ERR) signaling pathway - cell viability counter screen (AID 1224818);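 note: viability measured after 17.5 h of compound exposure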
Procedure, shortened: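 In the same ERR cell assay, compound-treated wells (17.5 h, 37 C) were multiplexed with a fluorogenic viability reagent, CellTiter-Fluor, read after 30 min to flag cytotoxic substances.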

[16] = qHTS assay to identify small molecule antagonists of the constitutive androstane receptor (CAR) signaling pathway - cell viability counter screen (AID 1224837); note: nearly all actives have a fitted effect of over 45% in size
Procedure, shortened: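 Using CellTiter-Fluor, viability is scored in HepG2 cells stably carrying hCAR and a 2.2kb CYP2B6 reporter after 23 hr compound exposure across 15 concentrations, with CITCO present at 50 nM.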
Potency is the fitted concentration of half-maximal effect; tags give direction and shape of the fitted curve or compound fluorescence and quenching.

CNP(=O)(OC)Oc1ccc(C(C)(C)C)cc1Cl (stereo unspecified)
inconclusive: Potency [2] 68.6 µM [inhibitor, single point] | Potency [3] 30.9 µM [inhibitor, partial curve] | Potency [4] 61.6 µM [cytotoxic, single point] | Potency [5] 71 µM [inhibitor, single point]
inactive: Potency [1]

O=c1oc2ccccc2c(O)c1C(CC(O)c1ccc(-c2ccc(Br)cc2)cc1)c1ccccc1 (stereo unspecified)
inconclusive: Potency [1] 52 µM [cytotoxic, single point] and 26.8 µM [cytotoxic] | Potency [2] 33.5 µM [inhibitor, single point] | Potency [6] 26.1 µM [inhibitor, partial curve, poor fit] | activation [6] -14.7% [at 35.3 µM] | Potency [4] 20.7 µM [cytotoxic, partial curve, poor fit] and 21.3 µM [cytotoxic, partial curve, poor fit] | Potency [5] 84.6 µM [inhibitor, single point]

CCCCCCCCCCCCCCC(Br)C(=O)O (stereo unspecified)
inconclusive: Potency [2] 68.6 µM [inhibitor, single point] | Potency [4] 34.7 µM [cytotoxic, partial curve] | Potency [7] 43.3 µM [rising, partial curve, poor fit] | Potency [5] 89.4 µM [inhibitor, single point]
active: Potency [1] 38.9 µM
inactive: Potency [6]

C=CCC1=C(C)C(OC(=O)C2C(C=C(C)C)C2(C)C)CC1=O (stereo unspecified)
active: Potency [1] 36.8 µM | Potency [2] 32.5 µM | Potency [4] 58.3 µM
inactive: Potency [11]
inconclusive: Potency [8] 58.3 µM [cytotoxic] | Potency [6] 46.3 µM | Potency [3] 58.3 µM | Potency [7] 61.1 µM [cytotoxic] | Potency [9] 38.6 µM [inhibitor] | Potency [10] 68.6 µM [inhibitor, single point] | Potency [12] 48.6 µM [cytotoxic, partial curve] | Potency [13] 72.7 µM [cytotoxic, partial curve, poor fit]

CC(C)OC(=O)C(O)(c1ccc(Cl)cc1)c1ccc(Cl)cc1
inconclusive: Potency [1] 54.9 µM [cytotoxic, single point] | Potency [6] 30.9 µM [cytotoxic, partial curve] | Potency [3] 61.6 µM [cytotoxic, single point] | Potency [7] 48.6 µM [cytotoxic, partial curve] | activation [14] -8.36% [phenotype inactive] | Potency [12] 68.6 µM [cytotoxic]
active: Potency [2] 54.5 µM | Potency [4] 38.9 µM

CCCN(CCC)c1c([N+](=O)[O-])cc(S(N)(=O)=O)cc1[N+](=O)[O-]
inconclusive: Potency [2] 36.7 µM [inhibitor] | Potency [6] 24.5 µM [partial curve] | Potency [3] 58.6 µM [cytotoxic] | Potency [14] 61.1 µM [inhibitor] | Potency [15] 30.6 µM [cytotoxic] | Potency [9] 54.5 µM [inhibitor] | Potency [10] 68.6 µM [inhibitor, partial curve, poor fit] | Potency [11] 29.5 µM [cytotoxic]
active: Potency [1] 52.2 µM | Potency [8] 43.6 µM | Potency [4] 43.6 µM | Potency [7] 58.1 µM | Potency [13] 65.2 µM | Potency [16] 65.2 µM

Nc1ccncc1
inactive: Potency [1]
inconclusive: Potency [2] 34.7 nM [inhibitor, full curve, poor fit] and 1.19 µM [inhibitor, full curve, poor fit]

CC(C)c1ccc(CO)cc1
inactive: Potency [2] | Potency [12]
inconclusive: Potency [1] 34.7 µM [rising, partial curve, poor fit]
